According to patent US20250263469A1 (HOSPITAL FOR SICK CHILDREN, published 2025):

What was measured:
[1] = molecular target: SARS-CoV-2 Spike on pseudotyped virus (PsV) (SARS-CoV-2); experiment: cell-based or functional assay
[2] = molecular target: SARS-CoV-2 Spike on pseudotyped virus (PsV) (SARS-CoV-2); experiment: cell-based or functional assay; remark: listed apart in the source

Binder | IC50 SARS-CoV2 PsV, MB [1] [µg/mL] | Median IC50, SARS-CoV-2 PsV neutralization [2] [µg/mL]
MB 56 (other) chain 1: DIQMTQSPSSLSASVGDRVTITCRASQGISSYLAWYQQKPGKAPKLLIYDASNLQSGVPSRFSGSGSGTDFTLTISSLQPEDFATYYCQQANSFPSTFGQGTKVEIKRTVAAPSVFIFPPSDEQLKSGTASVVCLLNNFYPREAKVQWKVDNALQSGNSQESVTEQDSKDSTYSLSSTLTLSKADYEKHKVYACEVTHQGLSSPVTKSFNRGECGGGGSGGGGSGGGGSGGGGSGGGGSGGGGSGGGGSGGGGSGGGGSGGGGSGGGGSGGGGSGGGGSGGGGSQVQLVQSGAEVKKPGASVKVSCKASGYTFTSYGISWVRQAPGQGLEWMGWISAYNGNTNYAQKLQGRVTMTRDTSTSTVYMELSSLRSEDTAVYYCARDIGPIDYWGQGTLVTVSSASTKGPSVFPLAPSSKSTSGGTAALGCLVKDYFPEPVTVSWNSGALTSGVHTFPAVLQSSGLYSLSSVVTVPSSSLGTQTYICNVNHKPSNTKVDKKVEPKSCGGGGSGGGGSGGGGSGGGGSGGGG[not shown - about 200 residues] chain 2: [not shown - human IgG1 Fc]GGGGSGGGGSGGGGSGGGGSGGGGSGGGGSGGGGSGGGGSGGGGSGGGGSGGGGSGGGGSGGGGSGGGGS[not shown - human IgG1 Fc]GGGGSGGGGSGGGGSGGGGSGGGGSGGSSQIRQNYSTDVEAAVNSLVNLYLQASYTYLSLGFYFDRDDVALEGVSHFFRELAEEKREGYERLLKMQNQRGGRALFQDIKKPAEDEW chain 3: DIQMTQSPSSLSASVGDRVTITCRASQGISSYLAWYQQKPGKAPKLLIYDASNLQSGVPSRFSGSGSGTDFTLTISSLQPEDFATYYCQQANSFPSTFGQGTKVEIKRTVAAPSVFIFPPSDEQLKSGTASVVCLLNNFYPREAKVQWKVDNALQSGNSQESVTEQDSKDSTYSLSSTLTLSKADYEKHKVYACEVTHQGLSSPVTKSFNRGECGGGGSGGGGSGGGGSGGGGSGGGGSGGGGSGGGGSGGGGSGGGGSGGGGSGGGGSGGGGSGGGGSGGGGSQVQLVQSGAEVKKPGASVKVSCKASGYTFTSYGISWVRQAPGQGLEWMGWISAYNGNTNYAQKLQGRVTMTRDTSTSTVYMELSSLRSEDTAVYYCARDIGPIDYWGQGTLVTVSSASTKGPSVFPLAPSSKSTSGGTAALGCLVKDYFPEPVTVSWNSGALTSGVHTFPAVLQSSGLYSLSSVVTVPSSSLGTQTYICNVNHKPSNTKVDKKVEPKSCGGGGSGGGGSGGGGSGGGGSGGGGSGKTPDAMKAAMALEKKLNQALLDLHALGSARTDPHLCDFLETHFLDEEVKLIKKMGDHLTNLHRLGGPEAGLGEYLFERLTLRHD | > 50 | > 50
MB 349 (other) chain 1: DIQMTQSPSSLSASVGDRVTITCRASQSISSWLAWYQQKPGKAPKLLIYDTSNLETGVPSRFSGSGSGTDFTLTISSLQPEDFATYYCQQSYTTPWTFGQGTRLEIKRTVAAPSVFIFPPSDEQLKSGTASVVCLLNNFYPREAKVQWKVDNALQSGNSQESVTEQDSKDSTYSLSSTLTLSKADYEKHKVYACEVTHQGLSSPVTKSFNRGECGGGGSGGGGSGGGGSGGGGSGGGGSGGGGSGGGGSGGGGSGGGGSGGGGSGGGGSGGGGSGGGGSGGGGSEVQLLESGGGLVQPGGSLRLSCAASGFTFSNYGMHWVRQAPGKGLEWVSGISSAGSITNYADSVKGRFTISRDNSKNTLYLQMNSLRAEDTAVYYCAGNHAGTTVTSEYFQHWGQGTLVTVSSASTKGPSVFPLAPSSKSTSGGTAALGCLVKDYFPEPVTVSWNSGALTSGVHTFPAVLQSSGLYSLSSVVTVPSSSLGTQTYICNVNHKPSNTKVDKKVEPKSCGGGGSGGGGSGGGGSGGGGSGGGG[not shown - about 200 residues] chain 2: [not shown - human IgG1 Fc]GGGGSGGGGSGGGGSGGGGSGGGGSGGGGSGGGGSGGGGSGGGGSGGGGSGGGGSGGGGSGGGGSGGGGS[not shown - human IgG1 Fc]GGGGSGGGGSGGGGSGGGGSGGGGSGGSSQIRQNYSTDVEAAVNSLVNLYLQASYTYLSLGFYFDRDDVALEGVSHFFRELAEEKREGYERLLKMQNQRGGRALFQDIKKPAEDEW chain 3: DIQMTQSPSSLSASVGDRVTITCRASQSISSWLAWYQQKPGKAPKLLIYDTSNLETGVPSRFSGSGSGTDFTLTISSLQPEDFATYYCQQSYTTPWTFGQGTRLEIKRTVAAPSVFIFPPSDEQLKSGTASVVCLLNNFYPREAKVQWKVDNALQSGNSQESVTEQDSKDSTYSLSSTLTLSKADYEKHKVYACEVTHQGLSSPVTKSFNRGECGGGGSGGGGSGGGGSGGGGSGGGGSGGGGSGGGGSGGGGSGGGGSGGGGSGGGGSGGGGSGGGGSGGGGSEVQLLESGGGLVQPGGSLRLSCAASGFTFSNYGMHWVRQAPGKGLEWVSGISSAGSITNYADSVKGRFTISRDNSKNTLYLQMNSLRAEDTAVYYCAGNHAGTTVTSEYFQHWGQGTLVTVSSASTKGPSVFPLAPSSKSTSGGTAALGCLVKDYFPEPVTVSWNSGALTSGVHTFPAVLQSSGLYSLSSVVTVPSSSLGTQTYICNVNHKPSNTKVDKKVEPKSCGGGGSGGGGSGGGGSGGGGSGGGGSGKTPDAMKAAMALEKKLNQALLDLHALGSARTDPHLCDFLETHFLDEEVKLIKKMGDHLTNLHRLGGPEAGLGEYLFERLTLRHD | > 50 | > 50
